Assay results: the supplement of paper PMC10185492
This is one part of the list. Read counts after selection give these values, which scatter widely.

Each substance was assayed on SARS-CoV-2 3CLpro (nsp5) (assay: substrate phage enrichment score (protease-eluted vs HEPES control, +1 offset) (ratio); higher = better cleaved substrate). Details: selection round: 4; protease elution time: 15 min.
Protocol: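 Random heptapeptide substrate phage display (M13 pIII fusion, heptapeptide between an N-terminal biotinylated AviTag GLNDIFEAQKIEWHE and pIII; phages immobilised on streptavidin) eluted by cleavage with 50 nM protease in 20 mM HEPES at 37 °C. Selected phages were NGS sequenced, and the enrichment score is (reads in protease sample + 1)/(reads in HEPES blank-selection control + 1).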

Substance	substrate phage enrichment score
PGATSHR	15
VAKGSQD	> 26
SPCAPSL	3.83
KYAQEAA	9
SHRSTLR	> 33
YYSTREQ	> 22
NQLKSRC	> 41
SDSSRLT	3.6
TKKTPTY	9.25
AYSAGMK	1.88
VNKEIVG	2.56
TTRADKS	4.8
VPHSLLH	> 35
VVYHLNV	> 25
RASQVTR	24
VRTETAR	13
AARRPCD	1.41
VQVSGPA	11
QSIQGGS	> 86
SPAKPCP	> 26
TWELLNR	0.0741
RTSVNCR	> 26
TVSETQR	2.29

Substance	substrate phage enrichment score
YTAAHHH	0.473
LQDASRS	> 23
VGSRLGL	10.5
QMCAKDS	> 21
EGLACPK	1
QASETFD	11
PGTSILH	> 36
RRSLIGR	1.36
GAAAHHH	0.61
RVGLVWG	7
APSHELS	> 22
LKCSDGT	> 41
CPTAHHH	0.714
RAKSPSR	> 28
DVWSNKR	2.14
TWGSALR	7.67
SHSAPVT	7.8
HHHHHHG	0.581
SVERDRV	4.25
VTPFKQQ	6
FAGTQPF	0.438
VAAAHHH	0.827
RSRTLLQ	> 51

Substance	substrate phage enrichment score
LCSQLKD	> 45
LQKMQTR	14.6
VVWPEKE	2.83
PDRYTKE	> 24
NHHHHGA	1.1
ATVGSGG	8.33
WNCKIPG	0.103
THGRTGI	> 24
KACPKNR	> 25
SRNLGWQ	12.3
DTVEPMS	0.844
LQAKPYA	> 21
DLHGPMP	> 21
SEPSWSA	6.67
RSSEGLI	> 27
ADECRDA	0.95
CGHLNRS	0.0769
LCLNSCS	> 21
AVADLKD	> 23
QFQECFR	3.11
THTRTET	> 71
KGRAQRN	1.44
GTAKPAT	0.348

Substance	substrate phage enrichment score
VQSPPGS	4.86
NDSLSAQ	8.33
HLYFQGG	3
KKHGCAD	1.2
YSTKPLW	11.9
LDWTMET	5.5
GSRLRTQ	2.67
SVPPNLR	4.5
SESMNAE	1.36
VKCNVDG	2.5
VSYDVIQ	3.4
AKTQSGR	0.294
QAPSAKQ	12
APWSVRQ	0.474
SRMPVLQ	> 21
KYFREYF	> 26
PCSLTDQ	14
TENMRRY	6.25
TGPQASR	> 26
VYPTKTC	> 26
EPGLLSR	2.43
ASGNLKA	1.36
TCRPKGN	> 100

Substance	substrate phage enrichment score
AVAAHHH	0.438
LNSHVWK	> 32
RPTMRVE	> 22
PTKRCNG	> 23
KRCETGS	> 25
FQCVPIG	> 26
VNLNGPR	> 48
PCTPGAA	6.33
HSHSGHF	0.517
MAAAHHH	0.769
KGQALLD	0.179
YRPESVG	3.5
AAVWTEK	1.88
VSAAHHH	0.96
TEQTPVT	> 57
RCEPHVV	1.9
ASLGKDQ	4.17
RCSANLR	> 44
SDETGLR	11.4
AAAQQHH	1.6
RTNEMRS	> 23
QYCTGCR	> 228
QPEEGSC	> 47

Substance	substrate phage enrichment score
ESSLHVM	0.471
FRYRMWC	0.673
ADPSFPQ	5
CIPGVKL	3.38
VTQMRTP	> 68
SPSFGCT	> 22
WFDDAKG	21
KRHQMSG	4.1
TQSHQRT	9
TQIPNHR	0.25
VVLQGGS	> 67
SSASVGA	0.714
NTTSMDR	> 24
SKLPRLQ	> 409
TPHAVLQ	> 27
QPCVTKD	> 23
QSNAALR	2.64
CCNMARD	12.5
CFTQGAR	0.125
ATKPADG	1.52
LDPQPMR	> 26
AQTECAS	20.2
GLSTLQS	> 24

Substance	substrate phage enrichment score
MGCRRDL	1.51
QIRKDDG	> 89
SLGEHWK	> 27
SQAPVNR	2.15
YSPSSKA	10.5
ITETSCR	> 23
ASGYPVS	0.25
GCARYIR	7.4
LLCHETC	1
AAAHHHH	0.67
PYLPASR	> 30
CGPSHLM	3.27
YPKQTQG	> 21
DSDRNVN	> 50
NARFPAA	1.73
TQDTLTR	0.375
EVRTPDK	1.09
SRPAQVQ	> 40
QSLEGIA	> 27
PAESHRP	0.163
TASCRLQ	> 394
PFSDILG	> 40
SCCTHLQ	29.2

Substance	substrate phage enrichment score
NGITKTH	> 24
ADAAAHN	> 23
PDEDAPQ	17.5
ERNATFQ	1.88
DKATNLQ	> 138
QPYSLTQ	8.19
SHSQCTA	2.33
RIVLSCR	> 29
VSRLQSK	> 131
AQVADSR	0.875
RQVTTCS	3.6
CLRKSEN	1
DNVRENI	0.0426
NTHFTDR	> 24
RESRPPR	> 29
QGYCGSN	> 42
TRTMPRL	> 46
QEWGPVL	> 43
YYAPSNM	> 45
LRKYPQC	2.38
ECSEPSN	> 26
HRGARLQ	20
